From the supplement of paper PMC7826260
The list shows a part of the results. Cleavage of a single-stranded DNA pool by Rep nickase domains was read by sequencing (3 µM enzyme, 1 h, 37 °C); shown is the middle of each 90-letter strand. Numbers give uncut DNA relative to the enzyme-free pool, as log2; the lower, the more was cut; hits are not called. Counts are relative to all reads, so uncut sequences can rise above 0 when many others are cut.

system: T1, Rep nickase domain of tomato golden mosaic virus; assay: uncleaved DNA left, log2 of reads against the no-enzyme library (log2 ratio); higher = less cleavage (more negative = more Rep cleavage of the k-mer); sequences stand for … in CTCGTCCG…ACCGGAGA
T1 sequence (protein, residues 1-124, tag omitted): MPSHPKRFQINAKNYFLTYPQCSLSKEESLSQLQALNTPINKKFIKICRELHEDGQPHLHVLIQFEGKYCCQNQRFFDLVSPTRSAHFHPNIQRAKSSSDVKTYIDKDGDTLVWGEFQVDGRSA
Description: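 A pool of 90-nt single-stranded DNAs with seven random bases just before the constant AC of the nick site (name = the seven bases) was cut by 3 µM recombinant His6-SUMO-tagged Rep nickase domain (300 nM DNA, 50 mM HEPES pH 8.0, 50 mM NaCl, 1 mM MnCl2, 1 h, 37 °C, three replicates). Uncut DNA was amplified and sequenced.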

Sequence	uncleaved DNA left (log2)
CTACCCA	-0.0633
TGAGTTT	-0.119
ATGTCGC	-0.115
TTAGTTC	-0.0562
CTTTTCG	-0.144
TGTATAC	0.138
GACGAAA	-0.157
GAAGTCT	-0.0423
CAGGCCA	0.168
TGCCCCC	-0.354
GGTGTTG	-0.0128
TTGCTTT	0.02
TTAACGG	0.142
GACTATC	0.145
GAGACTA	0.0644
GTCATGG	0.32
GGTAATT	-0.206
TGCTAGC	0.143
TAGTGAC	-0.00146
GCGGAAT	0.0435

Sequence	uncleaved DNA left (log2)
TCTGTCG	-0.0522
GCCAAAG	0.147
CATCGTC	-0.0498
TAGCGGA	0.12
AGGCCAC	-0.0398
TCAAGGA	0.264
TTACACT	-0.183
AAGAAAC	0.147
CGCTCAT	-0.138
AAGATAG	0.0652
ATAGTGC	-0.0246
CTGTAAT	-0.0244
ACATCGA	-0.0296
GGTGATC	0.00546
ATGCTAT	-0.157
ATCACTC	-0.136
TTAAAGC	-0.0427
GACCTAG	0.164
GCTGAAT	0.153
AGTGGAG	0.118
